# Assay results: the supplement of paper PMC12217912
# The list shows a part of the results. Sequences were assembled here from the parent chain. Inactive controls read about 0.05.
# B1: TEV protease; numbered along this chain (parent)
# chain: MGESLFKGPRDYNPISSSICHLTNESDGHTTSLYGIGFGPFIITNKHLFRRNNGTLVVQSLHGVFKVKDTTTLQQHLVDGRDMIIIRMPKDFPPFPQKLKFREPQREERICLVTTNFQTKSMSSMVSDTSCTFPSGDGIFWKHWIQTKDGQCGSPLVSTRDGFIVGIHSASNFTNTNNYFTSVPKNFMELLTNQEAQQWVSGWRLNADSVLWGGHKVFMVKPEEPFQPVKEATQL
# Variants of: B1
# Assay: raw area under fraction-flipped curve 0-4 h after induction (AUC4h, not background-subtracted), DNA-recorder readout of cleavage of the substrate (dimensionless); higher = more cleavage of the substrate by the protease variant
# Details: temperature: 34 °C; time window: 0-4 h after rhamnose induction
# Protocol: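 In vivo DNA recorder in E. coli TOP10(DE3) ΔrhaA at 34 °C. Each TEVp single-site mutant (parent TEVp 0) is paired with a single-site variant of the 7-mer TEVs (canonical ENLYFQ|S). The substrate sits between flexible linkers in a Bxb1-sfGFP-TEVs-SsrA fusion, so cleavage stabilises Bxb1 and speeds flipping of a recombination array, read by NGS. The value is the raw area under the fraction-flipped curve over 0-4 h after rhamnose induction (AUC4h), with ≥20 reads per time point. It is not background-subtracted; inactive controls average about 0.047.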
# 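Note: Bxb1 expression induced with 0.2% (w/v) L-rhamnose at OD600 near 0.5, cultures sampled hourly, flipped fraction per protease–substrate barcode pair counted by paired-end Illumina sequencing.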
Variant,area with substrate ENLYFQA,area with substrate ENLYFQC,area with substrate ENLYFQD,area with substrate ENLYFQF,area with substrate ENLYFQK,area with substrate ENLYFQL,area with substrate ENLYFQM,area with substrate ENLYFQN,area with substrate ENLYFQR,area with substrate ENLYFQS,area with substrate ENLYFQT,area with substrate ENLYFQW,area with substrate ENLYFQY,area with substrate ENLYFQG,area with substrate ENLYFQH,area with substrate ENLYFQI,area with substrate ENLYFQP,area with substrate ENLYFQV,area with substrate ENLYFQE,area with substrate ENLYFQQ
MGESLFKGPRDYNPISSSICHLTNESDGHTTSLYGIGFGPFIITNKHLFRRNNGTLVVQSLHGVFKVKDTTTLQQHLVDCRDMIIIRMPKDFPPFPQKLKFREPQREERICLVTTNFQTKSMSSMVSDTSCTFPSGDGIFWKHWIQTKDGQCGSPLVSTRDGFIVGIHSASNFTNTNNYFTSVPKNFMELLTNQEAQQWVSGWRLNADSVLWGGHKVFMVKPEEPFQPVKEATQL [G80C],0.0982,0.122,0.0642,0.08,0.0613,0.0605,0.0819,0.0814,0.0683,0.11,0.0492,0.0641,0.0879,,,,,,,
MGESLFKGPRDYNPISSSICHLTNESDGHTTSLYGIGFGPFIITNKHLFRRNNGTLVVQSGHGVFKVKDTTTLQQHLVDGRDMIIIRMPKDFPPFPQKLKFREPQREERICLVTTNFQTKSMSSMVSDTSCTFPSGDGIFWKHWIQTKDGQCGSPLVSTRDGFIVGIHSASNFTNTNNYFTSVPKNFMELLTNQEAQQWVSGWRLNADSVLWGGHKVFMVKPEEPFQPVKEATQL [L61G],0.103,0.095,0.0646,0.0821,0.0773,0.0611,0.0939,0.0829,0.0621,0.102,0.0678,0.0579,0.0898,0.114,0.106,0.0718,0.0565,0.0609,,
MGESLFKGPRDYNPISSSICHLTNESDGHTTSLYGIGFGPFIITNKHLFRRNNGTSVVQSLHGVFKVKDTTTLQQHLVDGRDMIIIRMPKDFPPFPQKLKFREPQREERICLVTTNFQTKSMSSMVSDTSCTFPSGDGIFWKHWIQTKDGQCGSPLVSTRDGFIVGIHSASNFTNTNNYFTSVPKNFMELLTNQEAQQWVSGWRLNADSVLWGGHKVFMVKPEEPFQPVKEATQL [L56S],0.0478,0.046,,0.0584,0.0658,0.0524,0.0521,,0.0423,0.0514,0.0468,0.0537,0.0391,0.0446,,0.0385,,,0.0541,
MGESLFKGPRDYNPISSSICHLTNESDGHTTSLYGIGFGPFIITNKHLFRRNNGTPVVQSLHGVFKVKDTTTLQQHLVDGRDMIIIRMPKDFPPFPQKLKFREPQREERICLVTTNFQTKSMSSMVSDTSCTFPSGDGIFWKHWIQTKDGQCGSPLVSTRDGFIVGIHSASNFTNTNNYFTSVPKNFMELLTNQEAQQWVSGWRLNADSVLWGGHKVFMVKPEEPFQPVKEATQL [L56P],0.0286,,0.0519,0.048,,0.0505,0.0496,0.0436,0.0481,0.0456,0.0248,0.0568,,,0.0516,0.0332,,,,
MGESLFKGPRDYNPISSSICHLTNESDGHTTSLYGIGFGPFIITNKHLFRRNNGTTVVQSLHGVFKVKDTTTLQQHLVDGRDMIIIRMPKDFPPFPQKLKFREPQREERICLVTTNFQTKSMSSMVSDTSCTFPSGDGIFWKHWIQTKDGQCGSPLVSTRDGFIVGIHSASNFTNTNNYFTSVPKNFMELLTNQEAQQWVSGWRLNADSVLWGGHKVFMVKPEEPFQPVKEATQL [L56T],0.0551,0.0723,0.0611,0.0506,0.0546,0.0895,,0.0556,0.0636,0.0665,0.0514,0.0445,0.0535,0.0591,,0,0.0568,,0.0485,0.0487
MGESLFKGPRDYNPISSSICHLTNESDGHTTSLYGIGFGPFIITNKHLFRRNNGTWVVQSLHGVFKVKDTTTLQQHLVDGRDMIIIRMPKDFPPFPQKLKFREPQREERICLVTTNFQTKSMSSMVSDTSCTFPSGDGIFWKHWIQTKDGQCGSPLVSTRDGFIVGIHSASNFTNTNNYFTSVPKNFMELLTNQEAQQWVSGWRLNADSVLWGGHKVFMVKPEEPFQPVKEATQL [L56W],0.0474,0.063,0.0538,0.063,0.0497,0.0533,0.0739,0.0577,0.0516,0.0627,0.0633,0.0636,0.0525,0.0658,0.0582,0.0543,0.0598,0.0554,,0.0465
MGESLFKGPRDYNPISSSICHLTNESDGHTTSLYGIGFGPFIITNKHLFRRNNGTQVVQSLHGVFKVKDTTTLQQHLVDGRDMIIIRMPKDFPPFPQKLKFREPQREERICLVTTNFQTKSMSSMVSDTSCTFPSGDGIFWKHWIQTKDGQCGSPLVSTRDGFIVGIHSASNFTNTNNYFTSVPKNFMELLTNQEAQQWVSGWRLNADSVLWGGHKVFMVKPEEPFQPVKEATQL [L56Q],0.0425,0.0448,0.0444,,0.0505,,0.0543,,0.0431,0.0455,0.0505,0.0543,0.0276,0.0815,,,,0.0716,,
MGESLFKGPRDYNPISSSICHLTNESDGHTTSLYGIGFGPFIITNKHLFRRNNGTMVVQSLHGVFKVKDTTTLQQHLVDGRDMIIIRMPKDFPPFPQKLKFREPQREERICLVTTNFQTKSMSSMVSDTSCTFPSGDGIFWKHWIQTKDGQCGSPLVSTRDGFIVGIHSASNFTNTNNYFTSVPKNFMELLTNQEAQQWVSGWRLNADSVLWGGHKVFMVKPEEPFQPVKEATQL [L56M],0.113,0.0795,,,0.0435,0.0698,,,0.058,0.108,0.0629,0.058,0.0585,0.108,,,,0.0822,,
MGESLFKGPRDYNPISSSICHLTNESDGHTTSLYGIGFGPFIITNKHLFRRNNGTLVVQSLHGVFKVKDTTVLQQHLVDGRDMIIIRMPKDFPPFPQKLKFREPQREERICLVTTNFQTKSMSSMVSDTSCTFPSGDGIFWKHWIQTKDGQCGSPLVSTRDGFIVGIHSASNFTNTNNYFTSVPKNFMELLTNQEAQQWVSGWRLNADSVLWGGHKVFMVKPEEPFQPVKEATQL [T72V],0.089,,,,0.0582,0.0627,0.0811,0.0736,0.064,0.097,0.0674,0.0699,0.0862,0.0923,0.0865,0.0611,,0.0487,,
MGESLFKGPRDYNPISSSICHLTNESDGHTTSLYGIGFGPFIITNKHLFRRNNGTLVVQSLHGVFKVKDTTSLQQHLVDGRDMIIIRMPKDFPPFPQKLKFREPQREERICLVTTNFQTKSMSSMVSDTSCTFPSGDGIFWKHWIQTKDGQCGSPLVSTRDGFIVGIHSASNFTNTNNYFTSVPKNFMELLTNQEAQQWVSGWRLNADSVLWGGHKVFMVKPEEPFQPVKEATQL [T72S],0.0914,0.12,0.0791,0.089,0.0559,,,0.0818,0.0574,0.0973,0.0678,0.059,,,,,,,,
MGESLFKGPRDYNPISSSICHLTNESDGHTTSLYGIGFGPFIITNKHLFRRNNGTLVVQSLHGVFKVKDTTHLQQHLVDGRDMIIIRMPKDFPPFPQKLKFREPQREERICLVTTNFQTKSMSSMVSDTSCTFPSGDGIFWKHWIQTKDGQCGSPLVSTRDGFIVGIHSASNFTNTNNYFTSVPKNFMELLTNQEAQQWVSGWRLNADSVLWGGHKVFMVKPEEPFQPVKEATQL [T72H],0.0886,0.111,0.0592,0.0767,,0.0486,0.0896,0.0797,0.0828,0.0944,,0.0642,0.0648,0.0914,0.0707,0.0597,0.0605,0.0605,,0.0796
MGESLFKGPRDYNPISSSICHLTNESDGHTTSLYGIGFGPFIITNKHLFRRNNGTLVVQSLHGVFKVKDTTRLQQHLVDGRDMIIIRMPKDFPPFPQKLKFREPQREERICLVTTNFQTKSMSSMVSDTSCTFPSGDGIFWKHWIQTKDGQCGSPLVSTRDGFIVGIHSASNFTNTNNYFTSVPKNFMELLTNQEAQQWVSGWRLNADSVLWGGHKVFMVKPEEPFQPVKEATQL [T72R],0.0768,0.107,,,0.0529,0.0685,0.0835,0.0794,0.0584,0.0996,0.0509,0.0641,,0.119,0.0671,,0.0573,,,
MGESLFKGPRDYNPISSSICHLTNESDGHTTSLYGIGFGPFIITNKHLFRRNNGTLVVQSLHGVFKVKDTTALQQHLVDGRDMIIIRMPKDFPPFPQKLKFREPQREERICLVTTNFQTKSMSSMVSDTSCTFPSGDGIFWKHWIQTKDGQCGSPLVSTRDGFIVGIHSASNFTNTNNYFTSVPKNFMELLTNQEAQQWVSGWRLNADSVLWGGHKVFMVKPEEPFQPVKEATQL [T72A],0.113,0.115,0.0842,,,0.0426,0.0886,0.0747,,0.105,,,,0.115,,0.0591,,,,
MGESLFKGPRDYNPISSSICHLTNESDGHTTSLYGIGFGPFIITNKHLFRRNNGTLVVQSLHGVFKVKDTTGLQQHLVDGRDMIIIRMPKDFPPFPQKLKFREPQREERICLVTTNFQTKSMSSMVSDTSCTFPSGDGIFWKHWIQTKDGQCGSPLVSTRDGFIVGIHSASNFTNTNNYFTSVPKNFMELLTNQEAQQWVSGWRLNADSVLWGGHKVFMVKPEEPFQPVKEATQL [T72G],0.0792,0.0864,,0.0848,0.0693,,0.086,0.0682,0.0569,0.0919,0.0663,,0.0613,0.0814,,0.0579,0.0432,,,0.0679
MGESLFKGPRDYNPISSSICHLTNESDGHTTSLYGIGFGPFIITNKHLFRRNNGTLVVQSLHGQFKVKDTTTLQQHLVDGRDMIIIRMPKDFPPFPQKLKFREPQREERICLVTTNFQTKSMSSMVSDTSCTFPSGDGIFWKHWIQTKDGQCGSPLVSTRDGFIVGIHSASNFTNTNNYFTSVPKNFMELLTNQEAQQWVSGWRLNADSVLWGGHKVFMVKPEEPFQPVKEATQL [V64Q],0.109,0.109,,,0.065,0.0627,0.0801,,0.0644,0.0931,,,0.0905,0.0865,,,0.0633,,,
MGESLFKGPRDYNPISSSICHLTNESDGHTTSLYGIGFGPFIITNKHLFRRNNGTLVVQSLHGPFKVKDTTTLQQHLVDGRDMIIIRMPKDFPPFPQKLKFREPQREERICLVTTNFQTKSMSSMVSDTSCTFPSGDGIFWKHWIQTKDGQCGSPLVSTRDGFIVGIHSASNFTNTNNYFTSVPKNFMELLTNQEAQQWVSGWRLNADSVLWGGHKVFMVKPEEPFQPVKEATQL [V64P],0.0975,0.107,,,,,0.0923,0.074,0.0436,0.0964,0.0626,,0.0693,0.0628,,0.0631,,0.0614,,
MGESLFKGPRDYNPISSSICHLTNESDGHTTSLYGIGFGPFIITNKHLFRRNNGTLVVQSLHGLFKVKDTTTLQQHLVDGRDMIIIRMPKDFPPFPQKLKFREPQREERICLVTTNFQTKSMSSMVSDTSCTFPSGDGIFWKHWIQTKDGQCGSPLVSTRDGFIVGIHSASNFTNTNNYFTSVPKNFMELLTNQEAQQWVSGWRLNADSVLWGGHKVFMVKPEEPFQPVKEATQL [V64L],0.0996,0.0937,,0.0576,0.077,,,0.0613,0.045,0.102,0.0609,0.058,0.0875,0.0779,,0.0362,,0.0579,0.0757,
MGESLFKGPRDYNPISSSICHLTNESDGHTTSLYGIGFGPFIITNKHLFRRNNGTLVVQSLHGVFKVKDTTTLQPHLVDGRDMIIIRMPKDFPPFPQKLKFREPQREERICLVTTNFQTKSMSSMVSDTSCTFPSGDGIFWKHWIQTKDGQCGSPLVSTRDGFIVGIHSASNFTNTNNYFTSVPKNFMELLTNQEAQQWVSGWRLNADSVLWGGHKVFMVKPEEPFQPVKEATQL [Q75P],0.0457,0.0562,0.0553,0.0496,0.0548,0.0413,0.0574,0.0574,0.0686,0.0579,0.0541,0.0714,0.0464,0.0618,0.0568,0.0538,0.0396,0.0624,0.0513,0.0556
